Data published in PubChem BioAssay (NCATS).
The shares of active, inactive and inconclusive entries below differ from those in the screen. For some of these results: Potencies of inconclusive entries are left out as doubtful fits. Activity calls are given as the source filed them. Unless noted, calls follow the shape of the dose curve; as a rule, active = well fitted curve in the direction sought with a large enough effect; inconclusive = small, poorly fitted or top-dose-only effect, or another doubt; inactive = no such curve, though single readings can be large; an effect the other way counts as inactive or inconclusive.

Columns and labels:
[1] = target: Cytochrome P450 3A4 (Homo sapiens) (UniProt P08684); experiment: Cytochrome P450 family 3 subfamily A member 4 (CYP3A4) small molecule antagonists: luciferase qHTS assay (AID 1645841; active = well fitted curve in the direction sought with a large enough effect in the repeat runs; inconclusive = weak or mixed curves; inactive = no such curve, though single readings can be large; an effect the other way counts as inactive or inconclusive; also: nearly all actives have a fitted effect of over 45% in size; also: potency is read from the fitted curve at half-maximal effect)
UniProt P08684, sequence (P08684 whole entry, looked up): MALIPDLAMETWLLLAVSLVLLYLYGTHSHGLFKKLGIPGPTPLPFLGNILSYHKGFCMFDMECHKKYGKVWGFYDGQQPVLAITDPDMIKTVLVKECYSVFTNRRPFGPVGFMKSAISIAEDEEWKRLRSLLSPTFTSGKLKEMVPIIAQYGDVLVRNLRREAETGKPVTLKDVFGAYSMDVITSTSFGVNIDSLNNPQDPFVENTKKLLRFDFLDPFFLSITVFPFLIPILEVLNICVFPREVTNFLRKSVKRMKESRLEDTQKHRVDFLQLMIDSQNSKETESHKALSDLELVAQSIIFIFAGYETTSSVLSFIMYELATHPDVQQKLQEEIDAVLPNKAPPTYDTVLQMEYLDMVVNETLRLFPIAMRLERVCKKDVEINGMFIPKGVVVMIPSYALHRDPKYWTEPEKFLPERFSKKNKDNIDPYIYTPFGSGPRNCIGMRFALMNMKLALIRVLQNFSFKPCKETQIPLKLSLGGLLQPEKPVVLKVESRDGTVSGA
How it was run: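 P450-Glo CYP3A4 enzyme with proluciferin substrate was preincubated with DMSO-dissolved compounds for 10 min at room temperature. NADPH regeneration solution started a 1 h reaction. Detection reagent stopped it, and luminescence was read after 20 min.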

[2] = target: Cytochrome P450 2C9 (Homo sapiens) (UniProt P11712); experiment: Cytochrome P450 family 2 subfamily C member 9 (CYP2C9) small molecule antagonists: luciferase biochemical (cell-free) qHTS assay (AID 1645842; active = well fitted curve in the direction sought with a large enough effect in the repeat runs; inconclusive = weak or mixed curves; inactive = no such curve, though single readings can be large; an effect the other way counts as inactive or inconclusive; also: potency is read from the fitted curve at half-maximal effect; nearly all actives have a fitted effect of over 55% in size)
UniProt P11712, sequence (P11712 whole entry, looked up): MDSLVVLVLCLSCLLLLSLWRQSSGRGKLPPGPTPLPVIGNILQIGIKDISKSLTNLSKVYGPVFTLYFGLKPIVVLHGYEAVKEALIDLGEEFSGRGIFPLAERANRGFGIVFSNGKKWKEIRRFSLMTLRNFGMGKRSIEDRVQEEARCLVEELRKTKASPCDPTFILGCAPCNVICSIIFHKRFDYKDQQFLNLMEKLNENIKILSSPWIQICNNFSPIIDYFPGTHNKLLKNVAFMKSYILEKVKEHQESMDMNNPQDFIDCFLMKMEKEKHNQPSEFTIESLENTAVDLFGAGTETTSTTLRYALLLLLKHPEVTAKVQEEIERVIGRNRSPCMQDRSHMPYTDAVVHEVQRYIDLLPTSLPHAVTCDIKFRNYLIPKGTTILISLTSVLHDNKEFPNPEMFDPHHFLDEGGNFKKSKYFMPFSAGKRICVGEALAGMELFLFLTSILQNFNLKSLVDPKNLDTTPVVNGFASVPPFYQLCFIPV
How it was run: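 P450-Glo CYP2C9 system: proluciferin substrate with enzyme in mix containing 0.4% BSA, 10 min at room temperature, then NADPH regeneration solution added and incubated 1 h at 37C. Detection reagent stopped reaction; luminescence read after 20 min as RLU.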

[3] = Primary redox qHTS assay for identification of artifact compounds. (AID 1845223); also: potency is read from the fitted curve at half-maximal effect
How it was run: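 Redox-cycling detection via DTT (250 uM final) oxidation coupled to Amplex Red (25 uM)/HRP (250 mU/mL) in HBSS. 15 min preincubation plus 30 min after DTT, room temperature. Ex/Em 525/598 nm; 4-parameter Hill fit against DMSO and 10 uM DA3003.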

OV90 = experiment: Primary qHTS to identify gynecologic anti-cancer compounds using libraries of approved drugs and bioactive compounds (AID 1345084); details: Gynecologic cancer cell panel viability, ATPlite luminescence, 48 h; series mostly up to 57.5 µM; also: nearly all actives have a fitted effect of over 55% in size; also: potency is read from the fitted curve at half-maximal effect
How it was run: (§1)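 Five-point cytotoxicity, 48 h drug exposure at 37 C, 5% CO2, on cells seeded 16 h beforehand. ATP content read by ATPlite luminescence.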

Tov112D = experiment: as above; details: Gynecologic cancer cell panel viability, ATPlite luminescence, 48 h; series mostly up to 57.5 µM
How it was run: as §1

[4] = qHTS of pediatric cancer cell lines to identify multiple opportunities for drug repurposing: Primary screen for NB1643 cells (AID 1347099); details: NB1643 neuroblastoma viability, CellTiter-Glo luminescence, 48 h; activity change, negative = cytotoxic: at 46 µM (top of the series); also: nearly all actives have a fitted effect of over 50% in size
How it was run: (§2)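 CRCs from 8- or 11-point titrations (lowest final 0.59 nM NPC, 0.78 nM MIPE). Cell viability: CellTiter-Glo after 48 h incubation, 15 min room-temperature development, luminescence imaging.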

[5] = Primary qHTS for small molecule stabilizers of the endoplasmic reticulum resident proteome: Secreted ER Calcium Modulated Protein (SERCaMP) assay (AID 1508630); details: SH-SY5Y GLuc-SERCaMP (Gaussia luciferase released on ER calcium loss) secretion, thapsigargin, luminescence; activity change, negative = inhibition: at 38.4 µM (top of the series) unless noted; also: potency is read from the fitted curve at half-maximal effect
How it was run: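 The SH-SY5Y reporter protocol was run at 3 concentrations up to 38.3 uM (primary) or 11 concentrations (follow-up): 16 h compound, 100 nM thapsigargin for 4 h, then extracellular luciferase luminescence.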

[6] = Drug repurposing screens with cells derived from glioblastoma tumor samples (AID 1345199); details: GBM patient neurospheres viability, ATP luminescence, 48 h; Potency: tumour line A unless noted; series mostly up to 46 µM; also: potency is read from the fitted curve at half-maximal effect; nearly all actives have a fitted effect of over 40% in size
How it was run: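 Primary testing used CD133+ neurospheres from four GBM patients, seven concentrations, 48 h exposure and ATP-based viability; confirmation added three slower-growing patient lines.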

[7] = test system: Zika virus NS2B-NS3 protease (unlinked complex); experiment: Primary screen GU Rhodamine qHTS for Zika virus inhibitors: Unlinked NS2B-NS3 protease assay (AID 1347159); details: Recombinant ZIKV NS2B-NS3 protease, Rhodamine110 substrate fluorescence; activity change, negative = inhibition: at 107 µM (top of the series); also: potency is read from the fitted curve at half-maximal effect; nearly all actives have a fitted effect of over 60% in size
How it was run: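 Unlinked NS2B/NS3, 25 nM; Rhod110 peptide, 1.5 microM; compounds, up to 114 microM. Reaction run 15 min at RT in 10 mM Tris-HCl pH 8.0, 0.01% Tween 20; kinetic fluorescence change fitted with a 4-parameter Hill model.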

[8] = test system: Zika virus NS2B-NS3 protease (linked construct); experiment: Primary screen NINDS Rhodamine qHTS for Zika virus inhibitors (AID 1347160); also: potency is read from the fitted curve at half-maximal effect; nearly all actives have a fitted effect of over 55% in size
How it was run: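 Single-chain NS2B-NS3 protease, 25 nM, pH 8.0; compounds preincubated 15 min. Activity: Rhodamine110 release from 1.5 microM substrate over 15 min, room temperature, data fitted to 4-parameter Hill.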

[9] = Primary qHTS for inhibitors of nuclear receptor binding SET domain protein 2 (NSD2) in an isogenic RCH-ACV NSD2 p.E1099K mutant (9B) (AID 1645876); details: activity change, negative = viability loss: at 44.9 µM (top of the series) unless noted; also: potency is read from the fitted curve at half-maximal effect; nearly all actives have a fitted effect of over 70% in size
[10] = Primary qHTS for inhibitors of nuclear receptor binding SET domain protein 2 (NSD2) in an RCH-ACV wild type WT cells (2C) (AID 1645877); details: activity change, negative = cell killing: at 44.9 µM (top of the series) unless noted; also: potency is read from the fitted curve at half-maximal effect; nearly all actives have a fitted effect of over 70% in size
[11] = target: Luciferin 4-monooxygenase (Photinus pyralis) (UniProt P08659); experiment: Primary firefly luciferase (FLuc) qHTS assay for identification of artifact compounds. (AID 1845220); also: potency is read from the fitted curve at half-maximal effect; nearly all actives have a fitted effect of over 60% in size
How it was run: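 Reaction readout was CCD-imaged luminescence, taken 5 min after adding 10 nM purified firefly enzyme to compound-treated wells holding 10 uM luciferin and ATP in pH 7.6 buffer.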

[12] = Primary fluorescence-based thiol-reactive (MSTI) qHTS assay for identification of artifact compounds. (AID 1845221);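 also: potency is read from the fitted curve at half-maximal effect; thiol-reactive compounds lower the probe fluorescence signal; nearly all actives have a fitted effect of over 65% in size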
How it was run: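 Thiol-reactive compounds detected by quenching of 4 uM MSTI fluorescence (525/598 nm) after 1 h room-temperature dark incubation in PBS pH 7.4, 2% DMSO. qHTS titration; percent inhibition Hill-fitted against Acetyl-MSTI/MSTI controls.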

[13] = S16 Schwann cell PMP22 intronic element beta-lactamase assay (AID 624044; calls by dose curve; also: nearly all actives have a fitted effect of over 15% in size); details: S16 rat Schwann cells, PMP22 element beta-lactamase FRET, 24 h; series mostly up to 38.3 µM
How it was run: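 Beta-lactamase reporter under a PMP22 intronic regulatory element in stable S16 rat Schwann cells; 24 h compound exposure. 460 nm blue signal normalized between DMSO (0%) and potassium clavulanate, with 535 nm FRET tracking viability; curves classed by r2 and response.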

[14] = qHTS of pediatric cancer cell lines to identify multiple opportunities for drug repurposing: Primary screen for SK-N-MC cells (AID 1347093); details: SK-N-MC viability, CellTiter-Glo luminescence, 48 h; activity change, negative = cytotoxic: at 46 µM (top of the series)
How it was run: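 Metabolically active cells were quantified by ATP-dependent luminescence (CellTiter-Glo, 15 min at room temperature) following 48 h treatment. Cells had been plated at 500-1,000 per well and settled for 5 h beforehand.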

[15] = qHTS of pediatric cancer cell lines to identify multiple opportunities for drug repurposing: Primary screen for Saos-2 cells (AID 1347097); details: Saos-2 viability, CellTiter-Glo ATP luminescence, 48 h; activity change, negative = cytotoxic: at 46 µM (top of the series); also: nearly all actives have a fitted effect of over 40% in size
How it was run: as §2

[16] = Counterscreen qHTS for small molecule stabilizers of the endoplasmic reticulum resident proteome: GLuc-NoTag assay (AID 1508627); also: potency is read from the fitted curve at half-maximal effect
How it was run: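 Secreted GLuc lacking the SERCaMP modification is measured in SH-SY5Y cells exposed to compound for 19 h and then to thapsigargin (100 nM, 4 h) to deplete ER calcium; hits retested at 11 concentrations, up to 76.6 uM.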

[17] = Confirmatory qHTS for small molecule stabilizers of the endoplasmic reticulum resident proteome: Secreted ER Calcium Modulated Protein (SERCaMP) assay (AID 1508628); also: nearly all actives have a fitted effect of over 40% in size
How it was run: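 GLuc-SERCaMP-expressing SH-SY5Y cells, pretreated 16 h with compound, are challenged with thapsigargin to empty ER calcium stores; after 4 h, coelenterazine is added directly to the medium and luminescence is imaged.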

[18] = Cell Viability qHTS for small molecule stabilizers of the endoplasmic reticulum resident proteome (AID 1508629); details: cell viability counter-screen, 100 nM thapsigargin for final 4 h;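 also: potency is read from the fitted curve at half-maximal effect; compound exposure about 46 h in total before the viability read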
[19] = A High-Content qHTS Against Drug Library for the Identification of Small Molecules that Inhibit DYT1 Early Onset Primary Dystonia-Associated Cell Pathology (AID 1645839; calls by dose curve; also: potency is read from the fitted curve at half-maximal effect)
How it was run: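 Induced EGFP-delE TorsinA cells are imaged after 48 h of compound treatment. Punctate fusion-protein distribution gives the %pathology value, while nuclei counts flag toxicity. Wild-type EGFP-hTOR1A cells define the normal pattern.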

AA1029 = experiment: qHTS profiling for inhibitors of Plasmodium falciparum proliferation (AID 504749); also: nearly all actives have a fitted effect of over 60% in size; also: potency is read from the fitted curve at half-maximal effect; details: P. falciparum in erythrocytes, SYBR Green DNA, 72 h; series mostly up to 28.7 µM
How it was run: (§3)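 Fluorescence of SYBR Green-bound parasite DNA, read at 485/535 nm, served as the growth measure. Infected erythrocytes were cultured with compound 72 h; artemisinin (0.29 uM) and DMSO wells defined the normalization range.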

CP203 = experiment: as above; details: P. falciparum in erythrocytes, SYBR Green DNA, 72 h; series mostly up to 28.7 µM
How it was run: as §3

CP247 = experiment: as above; details: P. falciparum in erythrocytes, SYBR Green DNA, 72 h; series mostly up to 28.7 µM
How it was run: as §3

CP260 = experiment: as above; details: P. falciparum in erythrocytes, SYBR Green DNA, 72 h; series mostly up to 28.7 µM
How it was run: as §3

Dd2 = experiment: as above; details: P. falciparum in erythrocytes, SYBR Green DNA, 72 h; series mostly up to 28.7 µM
How it was run: as §3

P94_40 = experiment: as above; details: P. falciparum in erythrocytes, SYBR Green DNA, 72 h; series mostly up to 28.7 µM
How it was run: as §3
Tags tell the direction and shape of the fitted curve.

COCCN(C)Cc1ccc2nc3sc(C(=O)N(C)C4CCCCC4)cn3c2c1
Potency [1]: inactive | Potency [2]: inconclusive [inhibitor, partial curve] | Potency [3]: inconclusive [activator, partial curve, poor fit] | Potency (OV90): inactive | Potency (Tov112D): inactive

CCO[C@H](Cc1ccc(OCCc2ccc(OS(C)(=O)=O)cc2)cc1)C(=O)O
Potency [4]: inactive | Potency [5]: inconclusive [inhibitor, partial curve, poor fit] | Potency (OV90): inactive | Potency [6]: active: 14.1 µM

CC(C)c1cc2c(c(O)c1O)[C@@]13CCCC(C)(C)C1[C@@H](O)[C@@H]2OC3=O (some centres undefined)
Potency [7]: inconclusive [inhibitor, full curve] | Potency [8]: inconclusive [inhibitor, single point] | Potency [9]: inconclusive [inhibitor, single point] | Potency [10]: inconclusive [inhibitor, single point] | Potency [11]: inconclusive [inhibitor, single point] | Potency [12]: active: 0.927 µM | Potency [3]: inconclusive [activator, partial curve, poor fit] | Potency (OV90): inactive

CC(=O)Oc1ccc(C(=C2CCCCC2)c2ccc(OC(C)=O)cc2)cc1
Potency [13]: inactive | Potency [14]: inactive | Potency [15]: inactive | Potency [16]: inconclusive [inhibitor, full curve, poor fit] | Potency [17]: inactive | Potency [18]: inconclusive [rising, full curve, poor fit] | Potency [5]: inconclusive [inhibitor, partial curve, poor fit] | Potency [19]: inconclusive [inhibitor, single point] | Potency [1]: inconclusive [falling, full curve] | Potency [2]: active: 9.77 µM | Potency (OV90): inconclusive [cytotoxic, partial curve, poor fit] | Potency (AA1029): inactive | Potency (CP203): inactive | Potency (CP247): inactive | Potency (CP260): inconclusive [inhibitor, single point] | Potency (Dd2): inactive | Potency (P94_40): inactive
